Measured values reported in a collection of fitness landscapes (doi:10.1016/j.celrep.2020.107928).
The full ranking holds about 81,000 sequences; the median of “one-hybrid fitness for binding NBS DNA” is about -0.1, and the highest 2% start at about 0.36. Some of the results follow.

B1: Caulobacter ParB omega fusion; a variant is named by its letters at X, in order, B8GW30 (parent)
chain: MESVVVGEPGMSEGRRGLGRGLSALLGEVDAAPAQAPGEQLGGSREAPIEILQRNPDQPRRTFREEDLEDLSNSIREKGVLQPILVRPSPDTAGEYQIVAGERAWRAAQRAGLKTVPIMVRELDDLAVLEIGIIENVQRADLNVLEEALSYKVLMEKFERTQENIAQTIGKSXSHVANXMRLLXLPDEVQSYLVSGELTAXHARAIAAAADPVALAKQIIEGGLSVRETEALARKAPNLSAGKSKGGRPPRVKDTDTQALESDLSSVLGLDVSIDHRGSTGTLTITYATLEQLDDLCNRLTRGI

Variants of: B1
Experiment: one-hybrid fitness for binding NBS DNA (the Noc-binding site; scaled: cognate 1, non-cognate 0); higher = stronger binding
Settings: with NBS DNA site
How it was run: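 Fitness is the rescaled log change in variant-to-wild-type read ratio, measured by Illumina sequencing of plasmids before and after bacterial one-hybrid selection. The scale puts cognate at 1 and non-cognate at 0. Selection of Caulobacter ParB libraries, four specificity codons randomised, took place in E. coli USO with a HIS3 reporter, site 19 bp from the promoter, over 48 hours at 37°C on M9-minus-histidine with 0.1 mM IPTG and 5 mM 3-AT.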

TEGK and WCWG cannot be ordered by “one-hybrid fitness for binding NBS DNA” value: ≤ 0.2 for the first, ≤ 0.2 for the second.

Going from RKAH to PVAI, the “one-hybrid fitness for binding NBS DNA” value falls from 0.322 to ≤ 0.2.

PIDT and RIHP cannot be ordered by “one-hybrid fitness for binding NBS DNA” value: ≤ 0.2 for the first, ≤ 0.2 for the second.

HSHC and IHRV cannot be ordered by “one-hybrid fitness for binding NBS DNA” value: ≤ 0.2 for the first, ≤ 0.2 for the second.

HNSW and GAYT cannot be ordered by “one-hybrid fitness for binding NBS DNA” value: ≤ 0.2 for the first, ≤ 0.2 for the second.

LHGG and MCRA cannot be ordered by “one-hybrid fitness for binding NBS DNA” value: ≤ 0.2 for the first, ≤ 0.2 for the second.

IINR and WLTC cannot be ordered by “one-hybrid fitness for binding NBS DNA” value: ≤ 0.2 for the first, ≤ 0.2 for the second.

YQHG and VLVP cannot be ordered by “one-hybrid fitness for binding NBS DNA” value: ≤ 0.2 for the first, ≤ 0.2 for the second.

First: RRNK
Second: YRRE
The “one-hybrid fitness for binding NBS DNA” value of the first is higher: 0.274 for the first, ≤ 0.2 for the second.

EANG and WLVR cannot be ordered by “one-hybrid fitness for binding NBS DNA” value: ≤ 0.2 for the first, ≤ 0.2 for the second.

First: TTSP
Second: RNKR
The “one-hybrid fitness for binding NBS DNA” value of the first is lower: ≤ 0.2 for the first, 0.535 for the second.

FHLT and MSHT cannot be ordered by “one-hybrid fitness for binding NBS DNA” value: ≤ 0.2 for the first, ≤ 0.2 for the second.

RHQE and TWSD cannot be ordered by “one-hybrid fitness for binding NBS DNA” value: ≤ 0.2 for the first, ≤ 0.2 for the second.

VYWW and CTKT cannot be ordered by “one-hybrid fitness for binding NBS DNA” value: ≤ 0.2 for the first, ≤ 0.2 for the second.

PYEC and SFNS cannot be ordered by “one-hybrid fitness for binding NBS DNA” value: ≤ 0.2 for the first, ≤ 0.2 for the second.

EMEE and VAAG cannot be ordered by “one-hybrid fitness for binding NBS DNA” value: ≤ 0.2 for the first, ≤ 0.2 for the second.

PLQA and MACW cannot be ordered by “one-hybrid fitness for binding NBS DNA” value: ≤ 0.2 for the first, ≤ 0.2 for the second.

VKES and PSDV cannot be ordered by “one-hybrid fitness for binding NBS DNA” value: ≤ 0.2 for the first, ≤ 0.2 for the second.

Going from LKRA to QCYS, the “one-hybrid fitness for binding NBS DNA” value rises from ≤ 0.2 to 0.432.

RFHE and DVWA cannot be ordered by “one-hybrid fitness for binding NBS DNA” value: ≤ 0.2 for the first, ≤ 0.2 for the second.

YGVV and LKPK cannot be ordered by “one-hybrid fitness for binding NBS DNA” value: ≤ 0.2 for the first, ≤ 0.2 for the second.

TYMS and LQIP cannot be ordered by “one-hybrid fitness for binding NBS DNA” value: ≤ 0.2 for the first, ≤ 0.2 for the second.

GTKH and PMGT cannot be ordered by “one-hybrid fitness for binding NBS DNA” value: ≤ 0.2 for the first, ≤ 0.2 for the second.

HSMA and MLSA cannot be ordered by “one-hybrid fitness for binding NBS DNA” value: ≤ 0.2 for the first, ≤ 0.2 for the second.

TGGG and PVNW cannot be ordered by “one-hybrid fitness for binding NBS DNA” value: ≤ 0.2 for the first, ≤ 0.2 for the second.

TGRR and LCGC cannot be ordered by “one-hybrid fitness for binding NBS DNA” value: ≤ 0.2 for the first, ≤ 0.2 for the second.

QSSG and ELPR cannot be ordered by “one-hybrid fitness for binding NBS DNA” value: ≤ 0.2 for the first, ≤ 0.2 for the second.

YERN and FTPQ cannot be ordered by “one-hybrid fitness for binding NBS DNA” value: ≤ 0.2 for the first, ≤ 0.2 for the second.

CGMV and SVNE cannot be ordered by “one-hybrid fitness for binding NBS DNA” value: ≤ 0.2 for the first, ≤ 0.2 for the second.

QTFC and GGPG cannot be ordered by “one-hybrid fitness for binding NBS DNA” value: ≤ 0.2 for the first, ≤ 0.2 for the second.

RELK and PKEQ cannot be ordered by “one-hybrid fitness for binding NBS DNA” value: ≤ 0.2 for the first, ≤ 0.2 for the second.

LPFC and PFRD cannot be ordered by “one-hybrid fitness for binding NBS DNA” value: ≤ 0.2 for the first, ≤ 0.2 for the second.

TRVC and QVPG cannot be ordered by “one-hybrid fitness for binding NBS DNA” value: ≤ 0.2 for the first, ≤ 0.2 for the second.

ACTG and PQKS cannot be ordered by “one-hybrid fitness for binding NBS DNA” value: ≤ 0.2 for the first, ≤ 0.2 for the second.

DQGL and CCYF cannot be ordered by “one-hybrid fitness for binding NBS DNA” value: ≤ 0.2 for the first, ≤ 0.2 for the second.

QSPL and RFQK cannot be ordered by “one-hybrid fitness for binding NBS DNA” value: ≤ 0.2 for the first, ≤ 0.2 for the second.

SVRK and QKTC cannot be ordered by “one-hybrid fitness for binding NBS DNA” value: ≤ 0.2 for the first, ≤ 0.2 for the second.

PGIM and SPSY cannot be ordered by “one-hybrid fitness for binding NBS DNA” value: ≤ 0.2 for the first, ≤ 0.2 for the second.

First: RCLS
Second: KRGP
The “one-hybrid fitness for binding NBS DNA” value of the first is higher: 0.396 for the first, ≤ 0.2 for the second.

GIDS and TRYY cannot be ordered by “one-hybrid fitness for binding NBS DNA” value: ≤ 0.2 for the first, ≤ 0.2 for the second.

HTSR and LILN cannot be ordered by “one-hybrid fitness for binding NBS DNA” value: ≤ 0.2 for the first, ≤ 0.2 for the second.

QSNC and NRIF cannot be ordered by “one-hybrid fitness for binding NBS DNA” value: ≤ 0.2 for the first, ≤ 0.2 for the second.

MRDS and NIEG cannot be ordered by “one-hybrid fitness for binding NBS DNA” value: ≤ 0.2 for the first, ≤ 0.2 for the second.

KKDT and SIYP cannot be ordered by “one-hybrid fitness for binding NBS DNA” value: ≤ 0.2 for the first, ≤ 0.2 for the second.

PTNF and PYMV cannot be ordered by “one-hybrid fitness for binding NBS DNA” value: ≤ 0.2 for the first, ≤ 0.2 for the second.

SSNM and KPNC cannot be ordered by “one-hybrid fitness for binding NBS DNA” value: ≤ 0.2 for the first, ≤ 0.2 for the second.

TDSA and RQDS cannot be ordered by “one-hybrid fitness for binding NBS DNA” value: ≤ 0.2 for the first, ≤ 0.2 for the second.

QDDV and LTNL cannot be ordered by “one-hybrid fitness for binding NBS DNA” value: ≤ 0.2 for the first, ≤ 0.2 for the second.

Compared with RNII, RYSS is higher in “one-hybrid fitness for binding NBS DNA” value: ≤ 0.2 for the first, 0.437 for the second.

Compared with RKKI, TIHT is lower in “one-hybrid fitness for binding NBS DNA” value: 0.231 for the first, ≤ 0.2 for the second.

MNTT and RMCW cannot be ordered by “one-hybrid fitness for binding NBS DNA” value: ≤ 0.2 for the first, ≤ 0.2 for the second.

EFDM and NVFG cannot be ordered by “one-hybrid fitness for binding NBS DNA” value: ≤ 0.2 for the first, ≤ 0.2 for the second.

TLWV and ERGT cannot be ordered by “one-hybrid fitness for binding NBS DNA” value: ≤ 0.2 for the first, ≤ 0.2 for the second.

QLLP and QAMY cannot be ordered by “one-hybrid fitness for binding NBS DNA” value: ≤ 0.2 for the first, ≤ 0.2 for the second.

TAKC and RRCP cannot be ordered by “one-hybrid fitness for binding NBS DNA” value: ≤ 0.2 for the first, ≤ 0.2 for the second.

QMHQ and LLFR cannot be ordered by “one-hybrid fitness for binding NBS DNA” value: ≤ 0.2 for the first, ≤ 0.2 for the second.

EQHG and KETS cannot be ordered by “one-hybrid fitness for binding NBS DNA” value: ≤ 0.2 for the first, ≤ 0.2 for the second.

SSFH and HWRH cannot be ordered by “one-hybrid fitness for binding NBS DNA” value: ≤ 0.2 for the first, ≤ 0.2 for the second.

YDWR and NSHN cannot be ordered by “one-hybrid fitness for binding NBS DNA” value: ≤ 0.2 for the first, ≤ 0.2 for the second.

Going from QRAY to ELSC, the “one-hybrid fitness for binding NBS DNA” value falls from 0.516 to ≤ 0.2.

NKYN and IRAS cannot be ordered by “one-hybrid fitness for binding NBS DNA” value: ≤ 0.2 for the first, ≤ 0.2 for the second.

IEPW and GDVR cannot be ordered by “one-hybrid fitness for binding NBS DNA” value: ≤ 0.2 for the first, ≤ 0.2 for the second.

QIYD and TYFS cannot be ordered by “one-hybrid fitness for binding NBS DNA” value: ≤ 0.2 for the first, ≤ 0.2 for the second.

IPTH and TLPW cannot be ordered by “one-hybrid fitness for binding NBS DNA” value: ≤ 0.2 for the first, ≤ 0.2 for the second.

DTME and YPYR cannot be ordered by “one-hybrid fitness for binding NBS DNA” value: ≤ 0.2 for the first, ≤ 0.2 for the second.

Compared with CTAG, RRFH is higher in “one-hybrid fitness for binding NBS DNA” value: ≤ 0.2 for the first, 0.389 for the second.

MLES and SSVT cannot be ordered by “one-hybrid fitness for binding NBS DNA” value: ≤ 0.2 for the first, ≤ 0.2 for the second.

NMES and DHMS cannot be ordered by “one-hybrid fitness for binding NBS DNA” value: ≤ 0.2 for the first, ≤ 0.2 for the second.

YPVP and VTLQ cannot be ordered by “one-hybrid fitness for binding NBS DNA” value: ≤ 0.2 for the first, ≤ 0.2 for the second.

QLVL and FNQT cannot be ordered by “one-hybrid fitness for binding NBS DNA” value: ≤ 0.2 for the first, ≤ 0.2 for the second.

YSLG and AMCA cannot be ordered by “one-hybrid fitness for binding NBS DNA” value: ≤ 0.2 for the first, ≤ 0.2 for the second.

PMSC and TFTY cannot be ordered by “one-hybrid fitness for binding NBS DNA” value: ≤ 0.2 for the first, ≤ 0.2 for the second.

CGGW and YLEP cannot be ordered by “one-hybrid fitness for binding NBS DNA” value: ≤ 0.2 for the first, ≤ 0.2 for the second.

RAEQ and LTRP cannot be ordered by “one-hybrid fitness for binding NBS DNA” value: ≤ 0.2 for the first, ≤ 0.2 for the second.

TMET and TSLL cannot be ordered by “one-hybrid fitness for binding NBS DNA” value: ≤ 0.2 for the first, ≤ 0.2 for the second.

MTLT and LTHP cannot be ordered by “one-hybrid fitness for binding NBS DNA” value: ≤ 0.2 for the first, ≤ 0.2 for the second.

Going from QRIR to MCNA, the “one-hybrid fitness for binding NBS DNA” value falls from 0.686 to ≤ 0.2.

VTPK and RHTN cannot be ordered by “one-hybrid fitness for binding NBS DNA” value: ≤ 0.2 for the first, ≤ 0.2 for the second.

KFPS and LNFF cannot be ordered by “one-hybrid fitness for binding NBS DNA” value: ≤ 0.2 for the first, ≤ 0.2 for the second.

YVWT and ANMD cannot be ordered by “one-hybrid fitness for binding NBS DNA” value: ≤ 0.2 for the first, ≤ 0.2 for the second.

ETLS and CFPS cannot be ordered by “one-hybrid fitness for binding NBS DNA” value: ≤ 0.2 for the first, ≤ 0.2 for the second.

GSNA and ADHR cannot be ordered by “one-hybrid fitness for binding NBS DNA” value: ≤ 0.2 for the first, ≤ 0.2 for the second.

GSSR and KDLG cannot be ordered by “one-hybrid fitness for binding NBS DNA” value: ≤ 0.2 for the first, ≤ 0.2 for the second.

PGCY and PADD cannot be ordered by “one-hybrid fitness for binding NBS DNA” value: ≤ 0.2 for the first, ≤ 0.2 for the second.

Compared with RCQR, MAVG is lower in “one-hybrid fitness for binding NBS DNA” value: 0.512 for the first, ≤ 0.2 for the second.

KWLR and GTSE cannot be ordered by “one-hybrid fitness for binding NBS DNA” value: ≤ 0.2 for the first, ≤ 0.2 for the second.

GTSG and DKYW cannot be ordered by “one-hybrid fitness for binding NBS DNA” value: ≤ 0.2 for the first, ≤ 0.2 for the second.

QPFN and FRHP cannot be ordered by “one-hybrid fitness for binding NBS DNA” value: ≤ 0.2 for the first, ≤ 0.2 for the second.

MDLG and IHLT cannot be ordered by “one-hybrid fitness for binding NBS DNA” value: ≤ 0.2 for the first, ≤ 0.2 for the second.

WTAD and ADWE cannot be ordered by “one-hybrid fitness for binding NBS DNA” value: ≤ 0.2 for the first, ≤ 0.2 for the second.

RAYF and THSK cannot be ordered by “one-hybrid fitness for binding NBS DNA” value: ≤ 0.2 for the first, ≤ 0.2 for the second.

HIYG and SVCG cannot be ordered by “one-hybrid fitness for binding NBS DNA” value: ≤ 0.2 for the first, ≤ 0.2 for the second.

QRFF and FPGM cannot be ordered by “one-hybrid fitness for binding NBS DNA” value: ≤ 0.2 for the first, ≤ 0.2 for the second.

PNHD and KHPY cannot be ordered by “one-hybrid fitness for binding NBS DNA” value: ≤ 0.2 for the first, ≤ 0.2 for the second.

GTIK and PRID cannot be ordered by “one-hybrid fitness for binding NBS DNA” value: ≤ 0.2 for the first, ≤ 0.2 for the second.

QNAK and PQWY cannot be ordered by “one-hybrid fitness for binding NBS DNA” value: ≤ 0.2 for the first, ≤ 0.2 for the second.

EIGS and DYPC cannot be ordered by “one-hybrid fitness for binding NBS DNA” value: ≤ 0.2 for the first, ≤ 0.2 for the second.

For WRLT, the “one-hybrid fitness for binding NBS DNA” value was ≤ 0.2.
